# Reference: a collection of fitness landscapes (doi:10.1016/j.celrep.2020.107928)
# Over roughly 81,000 sequences, “one-hybrid fitness for binding NBS DNA” has its median near -0.1; the highest 2% begin near 0.36. The list shows a part of the results.
# B1: Caulobacter ParB omega fusion; a variant is named by its letters at X, in order, B8GW30 (parent)
# chain: MESVVVGEPGMSEGRRGLGRGLSALLGEVDAAPAQAPGEQLGGSREAPIEILQRNPDQPRRTFREEDLEDLSNSIREKGVLQPILVRPSPDTAGEYQIVAGERAWRAAQRAGLKTVPIMVRELDDLAVLEIGIIENVQRADLNVLEEALSYKVLMEKFERTQENIAQTIGKSXSHVANXMRLLXLPDEVQSYLVSGELTAXHARAIAAAADPVALAKQIIEGGLSVRETEALARKAPNLSAGKSKGGRPPRVKDTDTQALESDLSSVLGLDVSIDHRGSTGTLTITYATLEQLDDLCNRLTRGI
# Variants of: B1
# Assay: one-hybrid fitness for binding NBS DNA (the Noc-binding site; scaled: cognate 1, non-cognate 0); higher = stronger binding
# Conditions: with NBS DNA site
# Procedure, shortened: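 Caulobacter ParB libraries with four specificity codons randomised were screened by bacterial one-hybrid selection in the E. coli USO strain, using a HIS3 reporter whose site lies 19 bp from the promoter. Selection ran for 48 hours at 37°C on M9 lacking histidine, with 0.1 mM IPTG and 5 mM 3-AT. Plasmids were Illumina-sequenced before and after selection, three replicate libraries were pooled, and variants with under 10 reads were dropped. Fitness is the log change in each variant's read ratio to wild type, rescaled against the cognate and non-cognate sites.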
row,Variant,one-hybrid fitness for binding NBS DNA
1,YAYC,≤ 0.2
2,CRDG,≤ 0.2
3,GQCT,≤ 0.2
4,MYSA,≤ 0.2
5,PHDT,≤ 0.2
6,RKTM,≤ 0.2
7,CLHR,≤ 0.2
8,ETMM,≤ 0.2
9,MDEY,≤ 0.2
10,SDTG,≤ 0.2
11,FWAC,≤ 0.2
12,TSVT,≤ 0.2
13,APVS,≤ 0.2
14,YVCG,≤ 0.2
15,CVWR,≤ 0.2
16,QYGD,≤ 0.2
17,RNPT,≤ 0.2
18,YTCS,≤ 0.2
19,RKPA,≤ 0.2
20,ETQT,≤ 0.2
21,HRDL,≤ 0.2
22,NLTG,≤ 0.2
23,PPYG,≤ 0.2
24,MTLK,≤ 0.2
25,LDTT,≤ 0.2
26,HICL,≤ 0.2

row,Variant,one-hybrid fitness for binding NBS DNA
1,QHWD,≤ 0.2
2,GLWV,≤ 0.2
3,PTCM,≤ 0.2
4,ASTE,≤ 0.2
5,PTHW,≤ 0.2
6,SRNA,≤ 0.2
7,FMVC,≤ 0.2
8,TMHT,≤ 0.2
9,PTPA,≤ 0.2
10,WCTT,≤ 0.2
11,GHLC,≤ 0.2
12,KAGR,≤ 0.2
13,MIHT,≤ 0.2
14,VISM,≤ 0.2
15,RHNP,≤ 0.2
16,GPLA,≤ 0.2
17,LHFI,≤ 0.2
18,IWRS,≤ 0.2
19,VHIS,≤ 0.2
20,VLLR,≤ 0.2
21,VHMW,≤ 0.2
22,RFNQ,≤ 0.2
23,PCFM,≤ 0.2
24,CIMK,≤ 0.2
25,TYYL,≤ 0.2
26,LSAN,≤ 0.2

row,Variant,one-hybrid fitness for binding NBS DNA
1,QRCR,0.981
2,SFMW,≤ 0.2
3,IQPS,≤ 0.2
4,VDPI,≤ 0.2
5,RTWC,≤ 0.2
6,TLLP,≤ 0.2
7,YYST,≤ 0.2
8,IRGS,≤ 0.2
9,SSAI,≤ 0.2
10,TGRV,≤ 0.2
11,HMPV,≤ 0.2
12,GWSD,≤ 0.2
13,ESNR,≤ 0.2
14,LVRN,≤ 0.2
15,SPQN,≤ 0.2
16,DYSK,≤ 0.2
17,LPKC,≤ 0.2
18,CLLT,≤ 0.2
19,QGTM,≤ 0.2
20,IRTL,≤ 0.2
21,AWER,≤ 0.2
22,AGVR,≤ 0.2
23,RFFP,≤ 0.2
24,LWLV,≤ 0.2
25,TQSW,≤ 0.2
